The subject of the series is ATP. Briefly: switch fluorescence ratio, 500 uM ATP over buffer (Cy3 cluster intensity, sum of 5 cycles each) (fold (ratio)); higher = stronger signal-on switching upon ATP binding; sequences stand for … in TCGTCGGCAGCGTCAGATGTGTATAAGAGACAGTTTTTTTTTTTTTTTTTTTTTTTTT…TC. The note with it: aptamer strand: ATP DNA aptamer (quencher-CACCTGGGGGAGTATTGCGGAGGAAGG + anchor), 100 nM annealed; ATP concentration: 500 uM; one replicate. Summed up: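 Exposure to 500 uM ATP lasted 15 min at 22 °C before imaging, and a selection-buffer image was taken beforehand, for Cy3-labelled switching-strand clusters on a modified Illumina MiSeq flow-cell annealed to 100 nM quencher-labelled ATP aptamer. Five buffer/ATP cycles were run with NaOH stripping and re-annealing between them. The fluorescence ratio per cluster is summed target-cycle over summed buffer-cycle Cy3 intensity, averaged per switch-domain sequence. Clusters outside 100-1000 RFU were excluded.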

The record followed here is the supplement of paper PMC10126150.

Values marked as one replicate rest on one cluster of the flow cell; about a third of the high ones do not repeat.

As to CAGGGCGGT, the switch fluorescence ratio worked out at 1.03.

With GGAGTGATTG, the switch fluorescence ratio came to 0.996.

For TTGCGAAAAG, the switch fluorescence ratio was found to be 1.02. For TGCTTGCAGC the value was 0.964; for ATAGTAGCG, 0.962; for CGGGTCCAAT, 0.963.

As for CCTGGTCACG, the switch fluorescence ratio amounted to 0.982. With GAAACGACCG, the switch fluorescence ratio is 1.02. For AAGCAGCTCG the value was 0.991; for CGACTAT, 1.01; for AAATAAGATG, 0.942. For ATGCAGGAGA the value was 0.966. As for TAATCTGAAA, the switch fluorescence ratio worked out at 1.07.

For CGATAAGATT, the switch fluorescence ratio was determined as 1.01. The value for TGGCCGGGGA was 1.02; that for CAGGATCAT was 0.983. In the case of AAGGTCTACG, the switch fluorescence ratio is 0.984.

As for CTATCATCGC, the switch fluorescence ratio is 1.04. Regarding TAACGTACTA, the switch fluorescence ratio was determined as 1.52.

For the sequence GAAATCACCC, the switch fluorescence ratio came out at 1.06. For GCGATGTTGG the value was 0.994; for TATATGTAAA, 1.02; for TAATCCGGTT, 0.979. For AGCGCTGGCA the value was 1. The value for AGGGTAGGAA was 1.06; that for TGGGGGCCG was 0.973; that for GACGATCC was 0.992. Turning to GTTACATGGC, the switch fluorescence ratio is 1. Turning to TTTTTTAAC, the switch fluorescence ratio is 1.06. Turning to ACCGTCCCCT, the switch fluorescence ratio worked out at 1.09. In the case of CTGCTGACCT, the switch fluorescence ratio was determined as 1.11. Take ACCTAGAGGA: the switch fluorescence ratio was found to be 1.01. For GTTACTTCCG the value was 1.14; for CGATTTAACA, 0.942. For GGCAATGTAT, the switch fluorescence ratio was 1.1. On to GTGGGAGCCG, for which the switch fluorescence ratio came out at 1.04. The value for CAAGATTACA was 1.01; that for CGAATCGTTC was 1; that for TTAGAGGGCT was 1.02.

Turning to GCCACTGACC, the switch fluorescence ratio came out at 1.18.

For the sequence ACACAACTGG, the switch fluorescence ratio was 1.23. The value for TAAAACCGGC was 1.11; that for CCTTATGGTT was 0.978; that for CGCCTAGCCT was 1.08. For GCGACACCTT the value was 1.19; for CAACTTAAGA, 1.01; for GATCTTTTC, 1.05.

Turning to CAATAATTGA, the switch fluorescence ratio is 0.981.

Turning to TCAGGATTGC, the switch fluorescence ratio was 0.999. As for CACAACTGCA, the switch fluorescence ratio was 1.06. ACCCGAATCA: the switch fluorescence ratio worked out at 0.996.

Consider GTTTGTTAAA, for which the switch fluorescence ratio was determined as 0.985. For AGGAGTAAGA the value was 0.98; for GGTCGATCCG, 0.95. With CCAATTCGAC, the switch fluorescence ratio came to 1.16. For CCTTGAATGT the value was 1.03; for ATTCGTTTCC, 1.08; for TCGTCATTGT, 0.964. Consider CTACCTCATG, for which the switch fluorescence ratio was found to be 1.11. For TACGAAAATG the value was 1.18; for ATCTGAGTCG, 1.

As for TAATCGCAGA, the switch fluorescence ratio was determined as 0.985. For GAAATTAAAT the value was 0.99; for AGGAACACC, 1.04. The value for GGAATTGTCT was 1; that for GCCGGAATTC was 1.1; that for CGCGATCTTG was 1.13. The value for TGACTTTTAA was 0.959; that for GTATACAGCG was 0.978. In the case of TCCGTGTTTG, the switch fluorescence ratio was determined as 0.987. The value for CATACAATTT was 0.989; that for CCGCGATGGA was 2.1.

In the case of GGCCGAGGCT, the switch fluorescence ratio was determined as 0.961. The value for GATGTTATGT was 0.993. For CAACTATTAG the value was 1.01; for CGCTTCTGCG, 0.885; for TGAATTAACC, 0.992. The value for AATTACCCCA was 1.29.
